Earlier results on one compound are cited in paper PMC4920026 (Scientific Reports, 2016).

The conditions of this data set: aqueous solution, from xenon partial pressure; cited from earlier work.

Take `[Xe]` [xenon]: the solubility coefficient is recorded as 44 mM MPa^−1.
